# Measured values taken from the supplement of paper PMC10441789.
# This is one part of the list. Antibody binding of pooled human sera (four to six donors per pool; dilution not stated) to peptides of the Trypanosoma cruzi antigen TSSA on microarrays. Quantile-normalised fluorescence in arbitrary units, mean of duplicate arrays; higher = more binding. No active / inactive call. The uninfected pools are read here as the healthy donors of the same country. The strongest signals lie near the top of the scale (about 60,000).
# How the values were obtained:
# Assay in all cases: antibody binding signal (normalised fluorescence) (arbitrary fluorescence units); higher = stronger serum antibody binding to peptide
# [1] = tested on: pooled sera of chronic Chagas disease patients, Argentina
# Procedure: (§1)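 Microarray of 15-residue peptides over residues 30-55 of Trypanosoma cruzi TSSAII, each with 1 to 10 substitutions at naturally variable positions, probed with one serum pool per country.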
# [2] = tested on: pooled sera of chronic Chagas disease patients, Bolivia
# Procedure: as §1
# [3] = tested on: pooled sera of chronic Chagas disease patients, Brazil
# Procedure: as §1
# [4] = tested on: pooled sera of chronic Chagas disease patients, Colombia
# Procedure: as §1
# [5] = tested on: pooled sera of chronic Chagas disease patients, Mexico
# Procedure: as §1
# [6] = tested on: pooled sera of chronic Chagas disease patients, USA
# Procedure: as §1
# [7] = tested on: pooled sera of uninfected people, Argentina
# Procedure: as §1
# [8] = tested on: pooled sera of uninfected people, Bolivia
# Procedure: as §1
# [9] = tested on: pooled sera of uninfected people, Brazil
# Procedure: as §1
# [10] = tested on: pooled sera of uninfected people, Colombia
# Procedure: as §1
# [11] = tested on: pooled sera of uninfected people, Mexico
# Procedure: as §1
# [12] = tested on: pooled sera of uninfected people, USA
# Procedure: as §1
Sequence,antibody binding signal [1],antibody binding signal [2],antibody binding signal [3],antibody binding signal [4],antibody binding signal [5],antibody binding signal [6],antibody binding signal [7],antibody binding signal [8],antibody binding signal [9],antibody binding signal [10],antibody binding signal [11],antibody binding signal [12]
DKKTAAGGTPSPPGA,779,239,175,10500,426,1760,150,144,793,325,268,248
PPSGTDNKTATGETP,35000,29800,42700,621,1970,9430,461,550,784,240,156,209
PSGKDNKAATGETPS,3080,1300,13000,1970,1750,10800,300,437,249,191,123,140
PPSGKENKAATGGTP,4480,684,3110,1460,2490,3440,3160,1610,166,743,161,300
DNKTATGGTPSQSGA,453,1100,695,814,384,647,432,202,565,214,701,186
GTENKPAAGEAPSPP,44300,6100,30100,535,1520,14100,326,1330,315,102,130,119
GKEKKTAAGGAPSQP,526,235,299,3270,1170,1370,149,119,128,152,114,108
SSTPPSGKDKKPATG,28500,1840,7430,246,48800,1220,290,468,120,156,111,104
NKPATGGAPSQPGAS,740,2330,30800,217,343,1550,758,1770,328,396,242,1380
GTDKKAAAGETPSPS,252,381,757,1940,401,3120,174,329,171,177,534,2230
KENKAATGGTPSPPG,221,390,282,163,214,375,134,79.1,161,131,79.3,129
GKENKTATGGAPSQS,2790,810,9450,5210,6140,15500,415,113,113,129,132,148
GKDKKAATGETPSPP,1480,370,7320,1400,1270,7910,250,110,85,214,94.2,205
NKAATGGAPSPPGAS,682,337,4430,578,318,1770,857,1200,266,664,230,1700
KTATGETPSQSGASS,917,4470,6660,165,246,4880,261,300,243,168,253,163
TSSTPPSGKEKKTAT,11800,178,261,371,16100,683,304,260,103,222,102,121
GKENKPATGEAPSPP,48900,33000,47500,16500,16900,44700,1510,775,252,243,329,152
PPSGTENKAATGETP,43300,36700,40900,349,5200,18100,1650,437,343,331,268,306
PPSGTDKKTATGGTP,8420,1660,16700,3660,23500,2410,338,252,239,511,450,188

Sequence,antibody binding signal [1],antibody binding signal [2],antibody binding signal [3],antibody binding signal [4],antibody binding signal [5],antibody binding signal [6],antibody binding signal [7],antibody binding signal [8],antibody binding signal [9],antibody binding signal [10],antibody binding signal [11],antibody binding signal [12]
DKKPATGGAPSPSGA,1250,808,1030,2930,956,2770,574,894,150,132,132,167
KDNKPATGGAPSQPG,549,1430,21000,295,325,1670,400,853,152,173,168,171
PSGKDNKTATGGTPS,2470,580,3630,5570,4900,3890,267,139,121,152,100,125
KDKKTAAGEAPSQSG,218,1960,477,243,201,2800,131,103,99,253,80.5,108
TDNKPATGETPSPPG,33400,31600,35200,274,148,26100,207,427,345,158,1900,1520
NKTATGGTPSQPGAS,590,597,2100,2130,428,777,1150,1090,415,428,1670,1110
EKKTAAGEAPSQPGA,5040,8480,35200,548,365,6500,315,1360,132,990,351,1060
KKTATGGTPSPSGAS,332,240,452,1260,220,1230,284,114,150,182,88.4,274
TDKKAATGGTPSPPG,1200,526,321,2070,617,1040,218,144,610,1060,116,126
SGKEKKPATGEAPSQ,46200,11100,42700,2030,4720,37100,1030,511,108,211,102,302
GTDNKPATGETPSPS,36200,32400,43800,1440,358,25500,195,731,468,177,1870,2240
GTDNKTAAGETPSQP,256,3790,35100,246,314,667,124,678,1260,168,205,119
TDNKPAAGGTPSPPG,1380,198,1070,1020,210,205,98.7,583,757,602,365,102
GTEKKTATGEAPSPS,10800,16000,10800,599,988,21000,240,544,220,116,138,126
GKDNKTAAGETPSQP,1570,1110,28700,3210,1980,2560,291,332,172,302,159,134
KKPAAGEAPSPSGAS,200,326,2740,166,189,11900,342,246,96.5,125,69.5,484
KDNKTAAGGAPSPPG,509,226,340,3060,271,693,266,115,153,178,99.2,179
GKDNKAAAGETPSPP,2110,337,5870,4720,5990,2860,221,449,98,153,135,262
